Assay results taken from the supplement of paper PMC12632987.
The full ranking holds about 4,500 sequences; the median of “median log2 fold change of GCK-ALFA target abundance (FLAG IP / Myc IP barcode read proportion)” is about 0.078, and the lowest 2% start at about -0.6. This is one part of the list.

B1: GBRAP_160_4179 (protein)
chain: SETVEEAEKEINEIFDEAIEMVKGETAENRANIVRVAFGEILLLLEEKGLLTDELGEKIREIEDRVVNTILENPDLTDEELEALLNKAREEILKALRESS
B2: GBRAP_125_2977 (protein)
chain: ASEEELEDLRLVARALGLDDEDAEEAVRLAAAHSIKGTLYAIAKALGYEELAEAIAKLTEEEAREVLRRTAAYIRAHPDITPEEAVAKLLEIAEEELAKR
B3: GBRAP_35_5565 (protein)
chain: DFDETTAEMMANTIDALTEAVPDMDPATLLDITEKIMRAAKEVVEDIKDNKEALERLLKSLEALLAAIRAQGLDDPHLQAAAAAVQDVIDLARKAIAEAK
B4: GBRAP_160_4491 (protein)
chain: SAKVEEAKKEVKAIVDDAVDAIAEAPADQRAAIARAYAGDIVQTLLELGVVTDEQAETVLDTAEAGLAAVVAASAAGAAAAAAAAAALVATLNDMIKKFS
B5: GBRAP_160_4548 (protein)
chain: SEKVEELIKDLEERTEFLKELVGEVSTEELINAVSVEFGSFILEGIELGVLSDELEDKLDEITDKLIEELKANKNASVEEKKELIEKATEEAKKLIKEES
B6: GBRAP_137_3684 (protein)
chain: KTLYATIETIDGYRYVTIESDDESLAEELLDAVLDALDEHGLKATVASLVENGKAYVEIDFPTDTTKEQVLALLKDVAERLGADLVVKDLDTGETLEYKA
B7: GBRAP_52_6345 (protein)
chain: MLEEFKKKIEEILKLLKEGKEEEAKKKIEELAKSLKEEEIDTLIKAVAEVAAKVKKEDIDYMIKLVELLEDALLEAGHDEYDASLLESEAYKQLYKVEQK
B8: GBRAP_18_5403 (protein)
chain: TDEEFEAAWAALSEELQDFVAEAAADALSLEDEEERIEVLVEALVEAAEKVSPEEVRNALYLLATTVLSREEEKERLLERFIERRPELKEVAEAVLEELK
B9: GBRAP_80_6782 (protein)
chain: MEEEIEKAIEEIRKINPEVAEIVEEIVELLKEIGVPLEIILEIVQTILDGKDLPEEKLLEIAEEVLEFAKELAEEKDRLTPEEIGRLVLAEALTLLEEAK
B10: GBRAP_57_6467 (protein)
chain: MSALERVEAHAARALALLEAGAPREEVLAEVRAALEELSRETLLDIALILDPSTSEDASREELIARLLEIFARALEEEGPEAARRMLDLMVGEAEMEASE
B11: GBRAP_128_3232 (protein)
chain: MDPELRAKVDALIDTIINGDVAETRAATAELVALMGTVSLEEAEEIAERVIKALEKLTVEKLEALADTIRANRGTLDPEKANLALEVEIEALNLAEEKEE
B12: GBRAP_78_6594 (protein)
chain: EVEELLDKAIEHLDEAARLARKLPEDARNELLDEIVEAMSYILESIEEGFDLKNLEEAKKYAEKALKLVEALDHPEAPEIAKELKKAIELLEKAIKLVKK
B13: GBRAP_52_6257 (protein)
chain: MRERLRAIAERIFELVKAGRLEEARALARELAETFSEEELELFIEEAAELALESSKEEIEDLERMAELVAEELERAGRPEEIVSLFEARVYGAIYQTSQR
B14: GBRAP_14_3785 (protein)
chain: MEEILKKVKEEFEELEEILTAIAPEKAEEIKKLIEKAEKELIEKIKKTGDPVAAAKEVFAKLEKEVAALLADADPETRALALAAVRTTAANLIEEIEELL
B15: GBRAP_35_5580 (protein)
chain: NDEEIILETMRDFAEAAIEALKGDDLEEAISITEAFVRAAELAIEDLKNNLEALEEIEKLLEEVIKAVKKYASDNPKMQEILKRLEELAKRAKELAKKIK
B16: GBRAP_184_5189 (protein)
chain: MVEEYTIKVKDVAEAKAKIAAIAAAVKGKKATLNIIVEAEEITVEIARTIMEGLGAIKAAGNATAITVELVGKMSEEVIDTAVELGKAAGIRVVLAIDEE
B17: GBRAP_11_2869 (protein)
chain: KKEELKKIAELAEELAEVLEELLEEGVDNEELREKAEELLKELLELTKKYGDEASKKLAEIAYELWKEALEDPENAEEYVKELLATVRVLEGDYLLELEE
B18: GBRAP_128_3323 (protein)
chain: MDEARLARAEALARAMVEASVEEARALTREFVALLATLTPEERERAAEIAERAFEELSAEKLEAVADTLRAERPTLDPETANVVAGLEVHALNLAEEKEE
B19: GBRAP_160_4711 (protein)
chain: MEVKEKLKKYVEEEFEEAKELIKGESIEQRAIIVEGTIGEIIMELFEEEEASDELIDEVDKIGDELVETILANPDLTEEEIEELIEKAEEEIKKAIDKYV

The binders below were run against GABARAP, O95166 (assay: median log2 fold change of GCK-ALFA target abundance (FLAG IP / Myc IP barcode read proportion) (log2 ratio); each designed protein is fused to an ALFA-tag nanobody in HEK293 cells to bring the named protein to FLAG-tagged glucokinase (GCK); Myc marks an untargeted standard; higher = target protein stabilised (more abundant)). Details: target protein: 3xFLAG-MCP-GCK-ALFA reporter; HEK293 landing pad (RPLP).
Sequence of GABARAP, O95166 (O95166 whole entry, the tested form may be a part): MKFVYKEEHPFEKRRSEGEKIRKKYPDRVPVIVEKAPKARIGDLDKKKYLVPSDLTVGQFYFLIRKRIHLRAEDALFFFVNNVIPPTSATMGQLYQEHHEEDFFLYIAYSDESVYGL
In short: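 Binders fused to an ALFA nanobody were recombined as a library into HEK293 landing-pad cells, which were induced with 2 μg mL^−1 doxycycline and then transfected to express a FLAG-tagged target and a Myc-tagged standard. After 48 h, circular RNA barcodes recovered by anti-FLAG and anti-Myc immunoprecipitation of lysates were reverse transcribed, amplified and sequenced. Each binder's target abundance is the median log2 ratio of FLAG to Myc barcode read proportions, from barcodes present at ≥10^−7 in both replicates, binders carrying ≥3 barcodes per replicate, a 10^−6 pseudocount and pooled replicates.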

Binder | median log2 fold change
B1 | -0.14
B2 | 0.0431
B3 | -0.138
B4 | -1.1
B5 | -0.16
B6 | -0.16
B7 | 0.264
B8 | -0.102
B9 | 0.0418
B10 | 0.175
B11 | 0.254
B12 | -0.0374
B13 | 0.101
B14 | 0.154
B15 | 0.103
B16 | 0.256
B17 | 0.113
B18 | 0.267
B19 | -0.152
